# Over roughly 110,000 compounds, “z-score” has its median near -0.1; the highest 2% begin near 2. This is one part of the list.
# Target: Metabotropic glutamate receptor 8 (Rattus norvegicus) (UniProt P70579)
# Test: rat mGluR8 modulators via GIRK flux, primary screen, cell-based, thallium flux, HTS (AID 488969)
# Details: HEK293 rat mGluR8, GIRK (G protein-gated inwardly rectifying potassium channel) thallium flux, FluoZin2; at 10 µM; stronger effect = higher value; submaximal glutamate (EC20) added with thallium
# UniProt P70579, sequence (P70579 whole entry, looked up): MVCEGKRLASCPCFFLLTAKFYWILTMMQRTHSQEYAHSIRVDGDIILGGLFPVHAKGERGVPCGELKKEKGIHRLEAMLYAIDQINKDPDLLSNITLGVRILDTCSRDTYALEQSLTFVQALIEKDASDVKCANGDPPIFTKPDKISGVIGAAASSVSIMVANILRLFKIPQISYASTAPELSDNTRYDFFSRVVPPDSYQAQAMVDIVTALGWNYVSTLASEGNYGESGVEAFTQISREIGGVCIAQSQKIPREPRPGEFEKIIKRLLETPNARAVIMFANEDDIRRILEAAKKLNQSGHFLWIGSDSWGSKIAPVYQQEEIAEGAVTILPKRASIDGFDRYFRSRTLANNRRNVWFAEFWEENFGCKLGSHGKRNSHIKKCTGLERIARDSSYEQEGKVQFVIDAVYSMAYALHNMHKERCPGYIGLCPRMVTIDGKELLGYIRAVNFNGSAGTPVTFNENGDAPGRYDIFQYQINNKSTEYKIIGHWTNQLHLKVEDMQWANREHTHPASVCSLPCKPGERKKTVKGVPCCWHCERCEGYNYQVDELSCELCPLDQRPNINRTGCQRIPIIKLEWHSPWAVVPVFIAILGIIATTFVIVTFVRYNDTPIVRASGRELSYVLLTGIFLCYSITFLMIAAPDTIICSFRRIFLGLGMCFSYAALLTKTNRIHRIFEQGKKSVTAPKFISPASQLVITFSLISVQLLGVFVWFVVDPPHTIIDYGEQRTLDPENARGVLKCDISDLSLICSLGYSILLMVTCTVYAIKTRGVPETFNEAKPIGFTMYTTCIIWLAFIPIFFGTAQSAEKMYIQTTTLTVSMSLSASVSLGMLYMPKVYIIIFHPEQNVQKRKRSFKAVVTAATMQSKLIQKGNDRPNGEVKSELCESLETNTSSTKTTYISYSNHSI
row,Structure (SMILES),z-score
1,CCc1ccc(Oc2cc(C)nc(N)n2)cc1,-1.24
2,Cc1cc(C)c(C#N)c(SCc2nnc(-c3ccccc3)o2)n1,-0.765
3,CCn1c(SCC(=O)Nc2ccccc2)nc2c1c(=O)n(C)c(=O)n2C,-0.188
4,Cc1ccc(C)c(OCC(=O)Nc2ccc3c(c2)OCO3)c1C,1.06
5,O=C1C2CCCCC2C(=O)N1c1cccc(OS(=O)(=O)c2ccccc2)c1 (stereo not drawn),-0.275
6,Cc1ccc(NC(=O)c2ccc(CSc3nccc(C)n3)cc2)cc1,-0.0401
7,CCn1c(SCC(=O)Nc2nc(C)c(C)s2)nnc1-c1cccs1,1.03
8,CCOC(=O)/C(=N/Nc1ccccc1)Sc1nnnn1-c1ccc(C)cc1,-0.485
9,CCOC(=O)C1CCN(C(=O)c2ccccc2NS(=O)(=O)c2ccc(F)cc2)CC1,-0.0607
10,O=C(N/N=C1\CCc2ccccc21)c1ccccc1Cl,-0.225
11,Cc1cccc(NC(=O)c2ccc(N(C)C3CCCCC3)c([N+](=O)[O-])c2)n1,-0.132
12,COc1ccccc1NC(CC(=O)c1ccccc1)C(=O)OCC(=O)c1ccc(C)cc1 (stereo not drawn),-0.389
13,O=C(/C=C/c1ccc2c(c1)OCO2)NCCSCc1ccc(Cl)cc1,-0.407
14,CCCc1c(C)nc2c(Br)cccc2c1Cl,1.04
15,COc1ccc(/C=N/NC(=O)CCc2n[nH]c(=O)[nH]c2=O)cc1O,-0.27
16,CCCN(c1ccc(C(C)C)cc1)S(=O)(=O)c1c(C)[nH]c(=O)[nH]c1=O,-0.622
17,CCOC(=O)/C(=N\Nc1cc(Cl)ccc1Cl)N1CCN(CC)CC1,-0.196
18,CC(C)(C)N(Cc1ccccc1)C(=O)CSc1nc2ccccc2c(=O)[nH]1,-0.331
19,COc1ccc(C(=O)NCCNC(C)=O)cc1S(=O)(=O)NCc1ccc(Cl)cc1,-0.0319
20,Cc1ccccc1Nc1nc(Nc2ccccc2C)nc(SC2=NCCS2)n1,0.438
21,CCN1C(=O)N(c2ccc(Cl)cc2)C(C)=CC1(C)C,-0.57
22,O=[N+]([O-])c1ccc(-c2ccc(C=Nc3cccc4ccccc34)o2)cc1,-0.156
23,CCOc1ccc(N(CC(=O)NC2CCCC2)S(=O)(=O)c2c(C)noc2C)cc1,-0.0448
24,CCOCCn1c(CN2CCC(Cc3ccccc3)CC2)nc2c1c(=O)n(C)c(=O)n2C,-0.268
25,Cc1ccc(N(CC(=O)Nc2ccc(C)cn2)S(=O)(=O)c2c(C)nn(C)c2C)cc1,-0.867
26,COc1ccc(C(CNC(=O)c2cc(=O)[nH]c3ccccc23)N2CCCC2)cc1 (stereo not drawn),0.635
27,CC(C)CC(NC(=O)C1CCC(C)CC1)C(=O)NCc1ccccn1 (stereo not drawn),-1.27

row,Structure (SMILES),z-score
1,Cc1csc(N2CCc3ccccc32)n1,0.0477
2,O=C(OCC1CC(c2ccccc2)=NO1)c1ccc(Cl)cc1 (stereo not drawn),-0.0879
3,O=C(NCc1nnc(SCc2ccc(C(F)(F)F)cc2)n1-c1ccccc1)C12CC3CC(CC(C3)C1)C2,-0.166
4,COC(=O)c1cccc(NC(=O)CCc2ccccc2)c1,-0.143
5,Cc1ccccc1C(=O)NNC(=S)Nc1cccc(C(F)(F)F)c1,-0.0547
6,CSc1nc(NC(C)=O)nc(C)c1Br,0.499
7,CC12c3ccccc3C(c3ccccc31)C1C(=O)N(Cc3cccnc3)C(=O)C12 (stereo not drawn),-0.146
8,Cc1sc2nc(SC(C)C)nc(N)c2c1C,0.466
9,O=c1c2cnn(-c3ccc(F)cc3)c2ncn1Cc1ccc(F)cc1,0.631
10,COc1ccc(-c2nnc(-c3ccc(N)cc3)o2)cc1,0.096
11,Cn1c(=O)c2c(ncn2CC(=O)N2CCc3ccccc3C2)n(C)c1=O,-0.486
12,O=C(NCc1cccnc1)c1ccccc1[N+](=O)[O-],-0.0931
13,COc1ccc(-n2nc(C(=O)NCC(=O)Nc3cccc(C)n3)c3ccccc3c2=O)cc1,-0.275
14,O=C(Nc1ccc(Cl)cc1)N(Cc1nc2ccccc2c(=O)[nH]1)Cc1cccs1,-0.151
15,CC(C)CC(=O)NC(=S)Nc1ccc(NC(=O)c2cccs2)cc1,-0.132
16,Cc1cc(C)nc(NS(=O)(=O)c2ccc(NC(=O)COc3ccccc3)cc2)n1,-0.333
17,CCOC(=O)c1c(-c2ccccc2Cl)cn2ccccc12,-1.07
18,CCc1cccc(NC(=O)CN(C)S(=O)(=O)c2cnc[nH]2)c1,1.29
19,CN(CC(=O)Nc1ccc(F)c(Cl)c1)S(=O)(=O)c1cccc2nsnc12,0.992
20,Cc1cccc(-c2noc(CCCOc3ccc(Cl)cc3Cl)n2)c1,-0.125
21,CC1CN(CC(=O)c2c(N)n(Cc3ccccc3)c(=O)n(C)c2=O)CC(C)O1 (stereo not drawn),0.178
22,COc1ccc(-c2noc(CN(C(=O)C(C)(C)C)C(C)C)n2)cc1,0.401
23,CCn1c(/C=C/N(C)c2ccccc2)[n+](CC)c2ccc(Cl)cc21,0.51
24,CC1CCCN(C(=O)c2ccc3c(=O)n(Cc4ccc5c(c4)OCO5)c(=S)[nH]c3c2)C1 (stereo not drawn),0.75
25,CCOC(=O)C1CCN(C(=O)c2oc3ccc(S(=O)(=O)N4CC(C)CC(C)C4)cc3c2C)CC1 (stereo not drawn),-1.94
26,COC(=O)c1c(N)n(-c2cc(OC)cc(OC)c2)c2nc3ccccc3nc12,-0.309

# Source: PubChem BioAssay AID488969 (Vanderbilt High Throughput Screening Facility, 2010)
